# Assay results taken from the supplement of paper PMC8728848.
# The sample as a whole holds a higher share of the strongest signals than the screen did.
# Columns and labels:
# Assay in all cases: glycan array binding signal (z-score within array); higher = stronger binding
# Conditions in all cases: glycan notation: IUPAC condensed, linker removed
# Fuc(a1-2)Gal(b1-3)GalNAc = target: Fuc(a1-2)Gal(b1-3)GalNAc
# Method in brief: (§1)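 From the Consortium for Functional Glycomics database, 3228 arrays were curated, keeping only those whose protein sequence was available. Binding is given as a within-array Z-score averaged across arrays sharing a protein sequence and across linkers. Negative Z-scores can be read as non-binding.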
# [1] = target: Fuc(a1-2)Gal(b1-3)[Fuc(a1-4)]GlcNAc(b1-2)Man(a1-3)[Fuc(a1-2)Gal(b1-3)[Fuc(a1-4)]GlcNAc(b1-2)Man(a1-3)]Man(b1-4)GlcNAc(b1-4)GlcNAc
# Method in brief: as §1
# [2] = target: Fuc(a1-2)Gal(b1-4)GlcNAc(b1-2)Man(a1-3)[Fuc(a1-2)Gal(b1-4)GlcNAc(b1-2)Man(a1-6)]Man(b1-4)GlcNAc(b1-4)GlcNAc
# Method in brief: as §1
# [3] = target: Fuc(a1-2)Gal(b1-4)GlcNAc(b1-2)Man(a1-3)[Fuc(a1-2)Gal(b1-4)GlcNAc(b1-2)Man(a1-6)]Man(b1-4)GlcNAc(b1-4)[Fuc(a1-6)]GlcNAc
# Method in brief: as §1
# [4] = target: Fuc(a1-2)Gal(b1-4)GlcNAc(b1-3)Gal(b1-4)GlcNAc(b1-2)Man(a1-3)[Fuc(a1-2)Gal(b1-4)GlcNAc(b1-3)Gal(b1-4)GlcNAc(b1-2)Man(a1-6)]Man(b1-4)GlcNAc(b1-4)GlcNAc
# Method in brief: as §1
# [5] = target: Fuc(a1-2)[Gal(a1-3)]Gal(b1-4)GlcNAc(b1-2)Man
# Method in brief: as §1
# [6] = target: Fuc(a1-2)[GalNAc(a1-3)]Gal(b1-3)GlcNAc(b1-2)Man(a1-3)[Fuc(a1-2)[GalNAc(a1-3)]Gal(b1-3)GlcNAc(b1-2)Man(a1-6)]Man(b1-4)GlcNAc(b1-4)GlcNAc
# Method in brief: as §1
# [7] = target: Fuc(a1-3)[Gal(b1-4)]GlcNAc(b1-2)Man(a1-3)[Fuc(a1-3)[Gal(b1-4)]GlcNAc(b1-2)Man(a1-6)]Man(b1-4)GlcNAc(b1-4)[Fuc(a1-6)]GlcNAc
# Method in brief: as §1
# Gal(a1-3)Gal(b1-4)GlcNAc = target: Gal(a1-3)Gal(b1-4)GlcNAc
# Method in brief: as §1
# [8] = target: Gal(b1-3)GalNAc(a1-3)[Fuc(a1-2)]Gal(b1-4)GlcNAc
# Method in brief: as §1
# Gal(b1-3)GalNAc(b1-3)Gal = target: Gal(b1-3)GalNAc(b1-3)Gal
# Method in brief: as §1
# [9] = target: Gal(b1-3)GlcNAc(b1-3)Gal(b1-4)GlcNAc(b1-3)Gal(b1-4)GlcNAc(b1-2)[Gal(b1-3)GlcNAc(b1-3)Gal(b1-4)GlcNAc(b1-3)Gal(b1-4)GlcNAc(b1-6)]Man(a1-6)[Gal(b1-3)GlcNAc(b1-3)Gal(b1-4)GlcNAc(b1-3)Gal(b1-4)GlcNAc(b1-2)Man(a1-3)]Man(b1-4)GlcNAc(b1-4)[Fuc(a1-6)]GlcNAc
# Method in brief: as §1
# [10] = target: Gal(b1-3)GlcNAc(b1-3)Gal(b1-4)GlcNAc(b1-6)[Gal(b1-3)GlcNAc(b1-3)]Gal(b1-4)Glc
# Method in brief: as §1
# [11] = target: Gal(b1-3)[Fuc(a1-4)]GlcNAc
# Method in brief: as §1
# [12] = target: Gal(b1-4)GalNAc(a1-3)[Fuc(a1-2)]Gal(b1-4)GlcNAc
# Method in brief: as §1
# [13] = target: Gal(b1-4)GlcNAc(b1-2)Man(a1-3)[Gal(b1-4)GlcNAc(b1-2)Man(a1-6)][GlcNAc(b1-4)]Man(b1-4)GlcNAc(b1-4)[Fuc(a1-6)]GlcNAc
# Method in brief: as §1
# [14] = target: Gal(b1-4)GlcNAc(b1-3)Gal(b1-3)GlcNAc
# Method in brief: as §1
# [15] = target: Gal(b1-4)GlcNAc(b1-3)Gal(b1-4)GlcNAc(b1-3)Gal(b1-4)GlcNAc(b1-2)[Gal(b1-4)GlcNAc(b1-3)Gal(b1-4)GlcNAc(b1-3)Gal(b1-4)GlcNAc(b1-6)]Man(a1-6)[Gal(b1-4)GlcNAc(b1-3)Gal(b1-4)GlcNAc(b1-3)Gal(b1-4)GlcNAc(b1-2)Man(a1-3)]Man(b1-4)GlcNAc(b1-4)[Fuc(a1-6)]GlcNAc
# Method in brief: as §1
# [16] = target: Gal(b1-4)GlcNAc(b1-3)Gal(b1-4)GlcNAc(b1-3)Gal(b1-4)GlcNAc(b1-3)Gal(b1-4)GlcNAc(b1-3)Gal(b1-4)GlcNAc(b1-2)[Gal(b1-4)GlcNAc(b1-3)Gal(b1-4)GlcNAc(b1-3)Gal(b1-4)GlcNAc(b1-3)Gal(b1-4)GlcNAc(b1-3)Gal(b1-4)GlcNAc(b1-6)]Man(a1-6)[Gal(b1-4)GlcNAc(b1-3)Gal(b1-4)GlcNAc(b1-3)Gal(b1-4)GlcNAc(b1-3)Gal(b1-4)GlcNAc(b1-3)Gal(b1-4)GlcNAc(b1-2)Man(a1-3)]Man(b1-4)GlcNAc(b1-4)[Fuc(a1-6)]GlcNAc
# Method in brief: as §1
# [17] = target: Gal(b1-4)GlcNAc(b1-3)GalNAc
# Method in brief: as §1
# [18] = target: Gal(b1-4)GlcNAc(b1-6)[Gal(b1-4)GlcNAc(b1-3)]GalNAc
# Method in brief: as §1
# Gal(b1-4)GlcNAc6P = target: Gal(b1-4)GlcNAc6P
# Method in brief: as §1
# Gal6P(b1-4)GlcNAc = target: Gal6P(b1-4)GlcNAc
# Method in brief: as §1
# Gal6S(b1-3)GlcNAc6S = target: Gal6S(b1-3)GlcNAc6S
# Method in brief: as §1
# Gal6S(b1-4)GlcNAc6S = target: Gal6S(b1-4)GlcNAc6S
# Method in brief: as §1
# GalNAc(a1-3)Gal = target: GalNAc(a1-3)Gal
# Method in brief: as §1
binder,measurement,setting,value
Langerin (Homo sapiens) (protein) LDYPRFMGTISDVKTNVQLLKGRVDNISTLDSEIKKNSDGMEAAGVQIQMVNESLGYVRSQFLKLKTSVEKANAQIQILTRSWEEVSTLNAQIPELKSDLEKASALNTKIRALQGSLENMSKLLKRQNDILQVVSQGWKYFKGNFYYFSLIPKTWYSAEQFCVSRNSHLTSVTSESEQEFLYKTAGGLIYWIGLTKAGMEGDWSWVDDTPFNKVQSARFWIPGEPNNAGNNEHCGNIKAPSLQAWNDAPCDKTFLFICKRPYVPSEPV[in this place human IgG1 Fc],glycan array binding signal (z-score),Fuc(a1-2)Gal(b1-3)GalNAc,-0.628
same,glycan array binding signal (z-score),[1],0.978
same,glycan array binding signal (z-score),[2],1.81
same,glycan array binding signal (z-score),[3],1.48
same,glycan array binding signal (z-score),[4],2.11
same,glycan array binding signal (z-score),[5],-0.776
same,glycan array binding signal (z-score),[6],2.03
same,glycan array binding signal (z-score),[7],-0.718
same,glycan array binding signal (z-score),Gal(a1-3)Gal(b1-4)GlcNAc,-0.431
same,glycan array binding signal (z-score),[8],-0.623
same,glycan array binding signal (z-score),Gal(b1-3)GalNAc(b1-3)Gal,-1
same,glycan array binding signal (z-score),[9],2.15
same,glycan array binding signal (z-score),[10],-0.977
same,glycan array binding signal (z-score),[11],-0.455
same,glycan array binding signal (z-score),[12],-0.804
same,glycan array binding signal (z-score),[13],-1.11
same,glycan array binding signal (z-score),[14],-0.815
same,glycan array binding signal (z-score),[15],0.964
same,glycan array binding signal (z-score),[16],1
same,glycan array binding signal (z-score),[17],-0.738
same,glycan array binding signal (z-score),[18],-0.928
same,glycan array binding signal (z-score),Gal(b1-4)GlcNAc6P,-0.56
same,glycan array binding signal (z-score),Gal6P(b1-4)GlcNAc,-0.799
same,glycan array binding signal (z-score),Gal6S(b1-3)GlcNAc6S,2.04
same,glycan array binding signal (z-score),Gal6S(b1-4)GlcNAc6S,2.2
same,glycan array binding signal (z-score),GalNAc(a1-3)Gal,-0.655
